According to the antibiotic and cytotoxicity screens of Wong et al. (2023):
The list shows a part of the results.

Columns and labels:
[1] = test system: HSkMC (human skeletal muscle cells); experiment: cytotoxicity call (relative viability < 0.9); conditions: 10 µM
[2] = test system: HepG2; experiment: cytotoxicity call (relative viability < 0.9); conditions: 10 µM
[3] = test system: S. aureus RN4220; experiment: growth inhibition call (relative growth <= 0.2); conditions: 50 µM

C[C@@H]1CN([C@@H](C)CO)C(=O)c2cccc(NS(=O)(=O)c3ccc(Cl)cc3)c2O[C@@H]1CN(C)S(=O)(=O)c1cn(C)cn1
inactive: cytotoxicity call [1] | cytotoxicity call [2] | growth inhibition call [3]

Cc1noc(C)c1NC(=O)N(C)C[C@@H]1OCCCC[C@H](C)Oc2ccc(NS(=O)(=O)c3ccccc3)cc2C(=O)N([C@H](C)CO)C[C@@H]1C
inactive: cytotoxicity call [1] | cytotoxicity call [2] | growth inhibition call [3]

Cc1cc2cc(C)nn2c(N)n1
inactive: cytotoxicity call [1] | cytotoxicity call [2] | growth inhibition call [3]

CC(=O)N1CCc2c(sc(NC(=O)CN3C(=O)CCC3=O)c2C(N)=O)C1
inactive: cytotoxicity call [1] | cytotoxicity call [2] | growth inhibition call [3]

C[C@H]1CN(C(=O)CSc2nnc3c4ccccc4n(Cc4cccc(Cl)c4)c3n2)CCN1C(=O)c1ccccc1F
inactive: cytotoxicity call [1] | cytotoxicity call [2] | growth inhibition call [3]

C[C@@H]1CN([C@H](C)CO)C(=O)c2cccc(NC(=O)C3CC3)c2O[C@H]1CN(C)C(=O)Nc1ccc2c(c1)OCO2
inactive: cytotoxicity call [1] | cytotoxicity call [2] | growth inhibition call [3]

COc1ccccc1S(=O)(=O)N[C@@H]1CC[C@@H](CCNC(=O)C2CCOCC2)O[C@@H]1CO
inactive: cytotoxicity call [1] | cytotoxicity call [2] | growth inhibition call [3]

COc1cc(N2C[C@@H]3C[C@H](C(=O)NCCN(C)C)N(C)[C@@H]3C2)ncn1
inactive: cytotoxicity call [1] | cytotoxicity call [2] | growth inhibition call [3]

C[C@@H]1CCCCO[C@H](CN(C)C(=O)Nc2ccc(F)cc2)[C@H](C)CN([C@@H](C)CO)C(=O)c2cc(NC(=O)Nc3ccc(F)cc3)ccc2O1
inactive: cytotoxicity call [1] | cytotoxicity call [2] | growth inhibition call [3]

C[C@H]1CN([C@@H](C)CO)C(=O)c2cc(NS(C)(=O)=O)ccc2O[C@@H]1CN(C)S(=O)(=O)c1cccs1
inactive: cytotoxicity call [1] | cytotoxicity call [2] | growth inhibition call [3]
